Experimental data reported in the supplement of paper PMC8728848.
This is one part of the list.

What was measured:
Assay in all cases: glycan array binding signal (z-score within array); higher = stronger binding
Conditions in all cases: glycan notation: IUPAC condensed, linker removed
Neu5Ac(a2-8)Neu5Ac = molecular target: Neu5Ac(a2-8)Neu5Ac
Procedure, shortened: (§1)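 Negative Z-scores can be read as non-binding. The Z-score is calculated within each array and then averaged across arrays of one protein sequence at different concentrations or buffers and across linkers. Arrays, 3228 in all, were curated from the Consortium for Functional Glycomics database and kept only where the protein sequence was available.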

[1] = molecular target: Neu5Ac(a2-8)Neu5Ac(a2-3)Gal(b1-3)GalNAc(b1-4)[Neu5Ac(a2-3)]Gal(b1-4)Glc
Procedure, shortened: as §1

[2] = molecular target: Neu5Ac(a2-8)Neu5Ac(a2-3)Gal(b1-3)GalNAc(b1-4)[Neu5Ac(a2-8)Neu5Ac(a2-3)]Gal(b1-4)Glc
Procedure, shortened: as §1

[3] = molecular target: Neu5Ac(a2-8)Neu5Ac(a2-3)Gal(b1-4)Glc
Procedure, shortened: as §1

[4] = molecular target: Neu5Ac(a2-8)Neu5Ac(a2-3)Gal(b1-4)GlcNAc
Procedure, shortened: as §1

[5] = molecular target: Neu5Ac(a2-8)Neu5Ac(a2-3)[Gal(b1-3)GalNAc(b1-4)]Gal(b1-4)Glc
Procedure, shortened: as §1

[6] = molecular target: Neu5Ac(a2-8)Neu5Ac(a2-3)[GalNAc(b1-4)]Gal(b1-4)Glc
Procedure, shortened: as §1

[7] = molecular target: Neu5Ac(a2-8)Neu5Ac(a2-8)Neu5Ac
Procedure, shortened: as §1

[8] = molecular target: Neu5Ac(a2-8)Neu5Ac(a2-8)Neu5Ac(a2-3)Gal(b1-4)Glc
Procedure, shortened: as §1

[9] = molecular target: Neu5Ac(a2-8)Neu5Ac(a2-8)Neu5Ac(a2-3)[Gal(b1-3)GalNAc(b1-4)]Gal(b1-4)Glc
Procedure, shortened: as §1

[10] = molecular target: Neu5Ac(a2-8)Neu5Ac(a2-8)Neu5Ac(a2-3)[GalNAc(b1-4)]Gal(b1-4)Glc
Procedure, shortened: as §1

[11] = molecular target: Neu5Ac(a2-8)Neu5Ac(a2-8)Neu5Ac(a2-8)Neu5Ac(a2-3)[GalNAc(b1-4)]Gal(b1-4)Glc
Procedure, shortened: as §1

[12] = molecular target: Neu5Ac(a2-8)Neu5Gc(a2-3)Gal(b1-4)GlcNAc
Procedure, shortened: as §1

[13] = molecular target: Neu5Ac(b2-6)Gal(b1-4)GlcNAc
Procedure, shortened: as §1

Neu5Ac(b2-6)GalNAc = molecular target: Neu5Ac(b2-6)GalNAc
Procedure, shortened: as §1

[14] = molecular target: Neu5Ac9Ac(a2-3)Gal(b1-3)GlcNAc
Procedure, shortened: as §1

[15] = molecular target: Neu5Ac9Ac(a2-3)Gal(b1-4)GlcNAc
Procedure, shortened: as §1

[16] = molecular target: Neu5Ac9Ac(a2-6)Gal(b1-4)GlcNAc
Procedure, shortened: as §1

[17] = molecular target: Neu5Gc(a2-3)Gal(b1-3)GlcNAc
Procedure, shortened: as §1

[18] = molecular target: Neu5Gc(a2-3)Gal(b1-3)[Fuc(a1-4)]GlcNAc
Procedure, shortened: as §1

Neu5Gc(a2-3)Gal(b1-4)Glc = molecular target: Neu5Gc(a2-3)Gal(b1-4)Glc
Procedure, shortened: as §1

[19] = molecular target: Neu5Gc(a2-3)Gal(b1-4)GlcNAc
Procedure, shortened: as §1

[20] = molecular target: Neu5Gc(a2-3)Gal(b1-4)GlcNAc(b1-3)Gal(b1-4)GlcNAc(b1-2)Man(a1-3)[Neu5Gc(a2-3)Gal(b1-4)GlcNAc(b1-3)Gal(b1-4)GlcNAc(b1-2)Man(a1-6)]Man(b1-4)GlcNAc(b1-4)GlcNAc
Procedure, shortened: as §1

[21] = molecular target: Neu5Gc(a2-3)Gal(b1-4)[Fuc(a1-3)]GlcNAc
Procedure, shortened: as §1

[22] = molecular target: Neu5Gc(a2-6)Gal(b1-4)GlcNAc
Procedure, shortened: as §1

Neu5Gc(a2-6)GalNAc = molecular target: Neu5Gc(a2-6)GalNAc
Procedure, shortened: as §1

[23] = molecular target: Neu5Gc(a2-8)Neu5Ac(a2-3)Gal(b1-4)GlcNAc
Procedure, shortened: as §1

[24] = molecular target: Neu5Gc(a2-8)Neu5Gc(a2-3)Gal(b1-4)GlcNAc
Procedure, shortened: as §1

[25] = molecular target: Neu5Gc(a2-8)Neu5Gc(a2-3)Gal(b1-4)GlcNAc(b1-3)Gal(b1-4)GlcNAc
Procedure, shortened: as §1

[26] = molecular target: Neu5Gc(a2-8)Neu5Gc(a2-6)Gal(b1-4)GlcNAc
Procedure, shortened: as §1

[27] = molecular target: Neu5Gc(b2-6)Gal(b1-4)GlcNAc
Procedure, shortened: as §1

B1: MpAFP NterminalRI GFP (Marinomonas primoryensis) (protein)
chain: MSDNQFPFATLGNAIGFITKLDGSVTVQSIDGQERVLKLGDPIFFGETVLTGGSGSVTIAFVDGTDVVIGGDSIVEMTDEIYNTGDNEDLVADSSSEIDALQNAILAGDDPTLIQDAPAAGNTLADQQRVDVSIERNDNSAQAGFGVDTQSSLPTYGYDTDNGNGGQATEREYSAPSLSRTLNQSPLLEHHHHHH
- glycan array binding signal (z-score) (Neu5Ac(a2-8)Neu5Ac): 0.07
- glycan array binding signal (z-score) [1]: -0.112
- glycan array binding signal (z-score) [2]: 0.212
- glycan array binding signal (z-score) [3]: -0.539
- glycan array binding signal (z-score) [4]: -0.655
- glycan array binding signal (z-score) [5]: 1.25
- glycan array binding signal (z-score) [6]: -0.501
- glycan array binding signal (z-score) [7]: -0.407
- glycan array binding signal (z-score) [8]: -0.492
- glycan array binding signal (z-score) [9]: 0.033
- glycan array binding signal (z-score) [10]: -0.426
- glycan array binding signal (z-score) [11]: -0.367
- glycan array binding signal (z-score) [12]: -0.569
- glycan array binding signal (z-score) [13]: -0.852
- glycan array binding signal (z-score) (Neu5Ac(b2-6)GalNAc): -0.612
- glycan array binding signal (z-score) [14]: 0.857
- glycan array binding signal (z-score) [15]: -0.521
- glycan array binding signal (z-score) [16]: -0.359
- glycan array binding signal (z-score) [17]: -0.652
- glycan array binding signal (z-score) [18]: -0.448
- glycan array binding signal (z-score) (Neu5Gc(a2-3)Gal(b1-4)Glc): 1.62
- glycan array binding signal (z-score) [19]: -0.632
- glycan array binding signal (z-score) [20]: 0.492
- glycan array binding signal (z-score) [21]: -0.165
- glycan array binding signal (z-score) [22]: 1.19
- glycan array binding signal (z-score) (Neu5Gc(a2-6)GalNAc): 3.75
- glycan array binding signal (z-score) [23]: -0.41
- glycan array binding signal (z-score) [24]: -0.564
- glycan array binding signal (z-score) [25]: -0.52
- glycan array binding signal (z-score) [26]: -0.596
- glycan array binding signal (z-score) [27]: -0.493
